# Reference: PubChem BioAssay AID624202 (National Center for Advancing Translational Sciences (NCATS), 2012)
# The campaign covered roughly 380,000 compounds. About 4,000 (1.1%) were called active. The inconclusive results got no clear call from the source; some entries with a clear call stand among them for comparison. The call rests on the fitted dose curve; in most records, active means well fitted activation curve with a large enough effect; inconclusive means small, poorly fitted or top-dose-only effect; inactive means no such curve, though single readings can be large or run the other way. Potencies of inconclusive entries are doubtful fits and often do not repeat.
# Assay: qHTS Assay to Identify Small Molecule Activators of BRCA1 Expression; further: nearly all actives have a fitted effect of over 80% in size
# Conditions: MCF7-BRCA1-FFLuc reporter, luminescence, 48 h; series mostly up to 46.1 µM
# Outline: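 Compounds are tested at multiple concentrations on MCF7 BRCA1-luciferase reporter cells seeded at 2000 per well; after 48 h, a single luminescence end-point is taken and curves fitted to the normalized data.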
# Potency means the concentration at half of the fitted maximal effect; tags describe the fitted curve by direction and shape.
row,Compound,Potency
1,CC(C)CC(=O)NC(=S)NNC(=O)c1cccc([N+](=O)[O-])c1,inactive
2,Cc1nn(CCOc2ccccc2)c(=O)n1-c1ccccc1,"inconclusive: 11.2 µM [activator, partial curve, poor fit]"
3,COc1cccc(NC(=O)C2CCOC2=O)c1 (centres undefined),inactive
4,Cc1c(C(=O)N2CCC2)oc2ccc(Br)cc12,"inconclusive: 17.8 µM [activator, partial curve, poor fit]"
5,COc1ccc2cc(/C(C)=N/NC(=O)C3CC3)ccc2c1,"inconclusive: 2.51 µM [activator, full curve, poor fit]"
6,N/C(Cc1ccc(Cl)cc1Cl)=N\OC(=O)c1ccccc1F,"inconclusive: 20 µM [activator, partial curve, poor fit]"
7,CCCCOC(=O)Nc1cccc(C(C)=O)c1,"inconclusive: 20 µM [activator, partial curve, poor fit]"
8,O=c1oc2cc(O)ccc2cc1-c1ccccc1,active: 10 µM
9,Cc1ccc(NC(=O)CNCc2cccs2)c(Br)c1,"inconclusive: 11.2 µM [activator, partial curve, poor fit]"
10,Cc1cccc(NC(=O)CNc2cc(C)ccc2C)c1,active: 12.6 µM
11,Cc1cccc(CSC2=NN3CCCC(=O)N=C3S2)c1,"inconclusive: 7.94 µM [activator, partial curve, poor fit]"
12,Fc1ccc(OCc2nnc(-c3ccccc3Br)o2)c(Cl)c1,"inconclusive: 2 µM [activator, partial curve, poor fit]"
13,Cc1cc(C(=O)NCCC2=CCCCC2)c(C)o1,"inconclusive: 1.58 µM [activator, partial curve, poor fit]"
14,CC1CCCC(C)N1C(=O)c1cc(-c2cccs2)on1 (centres undefined),active: 15.8 µM
15,CCOc1ccc2nc(NC(=O)CSc3nnc(-c4ccncc4)n3CC3CCCO3)sc2c1 (centres undefined),"inconclusive: 12.6 µM [activator, partial curve, poor fit]"
16,CC(/C=N/NC(=O)c1nn(C)c(C)c1Br)=C\c1ccccc1,"inconclusive: 2.24 µM [activator, full curve, poor fit]"
17,Cc1scc(C(=O)NNC(=S)NCC(C)C)c1C,inactive
18,Cc1ccc(Cn2ccc(=O)c(OCc3ccccc3)c2C)cc1,active: 11.2 µM
19,COc1ccc(NC(=O)c2ccc(OC(=S)N(C)c3ccc(OC)cc3)cc2)cc1,inactive
20,CC(=O)NCCNc1nc2cc(-c3ccccc3CO)sc2c(=O)n1C,inactive
21,Cc1nc(C)c(CCNS(=O)(=O)c2ccc(F)cc2)s1,inactive
22,C=CCNC(=O)N1CCCC(C(=O)c2cccc(OC(C)C)c2)C1 (centres undefined),"inconclusive: 12.6 µM [activator, single point]"
23,CCCCn1nnnc1C1(C)CCC(=O)N1Cc1cccnc1 (centres undefined),inactive
24,Cc1cc(NC(=O)CCSc2ccccc2)ccc1Br,"inconclusive: 10 µM [activator, partial curve, poor fit]"
25,CN(CC(=O)NCCc1ccccc1)Cc1ccco1,"inconclusive: 12.6 µM [activator, partial curve, poor fit]"
26,CC(C)(C)c1ccc(C(=O)Nc2ccc(Cl)cc2)cc1,"inconclusive: 0.708 µM [activator, full curve, poor fit]"
27,COc1ccc(Cl)cc1NC(=O)CSc1nc(=O)n(Cc2ccco2)c2c1CCC2,inactive

row,Compound,Potency
1,Cc1cc(C)c(C(=O)CN2C(=O)NC3(CCCCC3)C2=O)cc1C,"inconclusive: 31.6 µM [activator, single point]"
2,COc1ccc(-c2csc(N)n2)cc1F,"inconclusive: 11.2 µM [activator, partial curve, poor fit]"
3,O=C(CSc1nc2c(sc3ccccc32)c(=O)n1CCCN1CCCC1)NCc1ccco1,inactive
4,O=C(NCCSc1ccccc1)c1ccc(Br)cc1,"inconclusive: 1.12 µM [activator, full curve, poor fit]"
5,Nn1c(SCc2ccccc2)nc2ccccc21,active: 3.16 µM
6,Brc1ccccc1OCCOc1cccc2cccnc12,"inconclusive: 15.8 µM [activator, single point]"
7,CCOC(=O)C1(Cc2ccccc2)CCCN(C(=O)COc2ccccc2OC)C1 (centres undefined),active: 10 µM
8,Cc1ccc(NC(=O)n2ccc(-c3ccc(-n4ccnc4)cc3)n2)cc1,"inconclusive: 8.91 µM [activator, partial curve, poor fit]"
9,CC(C)(C)N=C1NN=C(c2cc3ccccc3o2)CS1,"inconclusive: 0.631 µM [activator, full curve, poor fit]"
10,O=C(CSc1nnc2ccccn12)Nc1cccc(-c2nc3ccccc3s2)c1,active: 5.01 µM
11,CN(C)/C=C/C(=O)c1cnc(-c2cccc(Cl)c2)s1,"inconclusive: 10 µM [activator, partial curve, poor fit]"
12,CC1Sc2n(c3ccccc3[n+]2C)N=C1c1ccccc1 (centres undefined),inactive
13,Cc1ccc(CNc2ccc3c(c2)nc(C)n3C)cc1,"inconclusive: 0.631 µM [activator, full curve, poor fit]"
14,CC(C)C[C@H](N)c1nnc(SCc2ccc(Cl)cc2Cl)o1,inactive
15,COc1ccc(-c2ccc(SCc3ccccn3)nn2)cc1OC,inactive
16,COc1ccc(CSc2n[nH]c(C)n2)cc1Br,"inconclusive: 11.2 µM [activator, partial curve, poor fit]"
17,O=C(CCl)N1N=C(c2ccco2)CC1c1cccs1 (centres undefined),inactive
18,Cc1ccsc1C(=O)Nc1ccc2c(c1)OCCO2,"inconclusive: 0.631 µM [activator, full curve, poor fit]"
19,COc1cccc(-c2nc(-c3ccc(Br)o3)no2)c1,inactive
20,O=C(CCc1ccccc1)c1ccc2c(c1)OCCCO2,active: 3.55 µM
21,Clc1nc2ccccc2cc1/C=N/Nc1nc2ccccc2[nH]1,"inconclusive: 14.1 µM [activator, single point]"
22,CCc1nnc(NC(=O)C23CC4CC(CC(C4)C2)C3)s1,active: 11.2 µM
23,Cc1cc(NC(=O)c2cncc(Br)c2)ccc1NC(=O)c1cc2ccccc2o1,inactive
24,C/C(N)=C(/C#N)C(=O)CSc1nnc(Nc2cccc(C)c2)s1,"inconclusive: 35.5 µM [activator, single point]"
25,Cc1ccsc1/C=N/NC(=O)c1ccc(-n2cccc2)cc1,active: 11.2 µM
26,COc1ccc(-c2ccc3oc(-c4ccsc4)cc(=O)c3c2)cc1F,inactive
27,COc1ccccc1OCCNC(=O)c1ccc(C(C)(C)C)cc1,"inconclusive: 14.1 µM [activator, partial curve, poor fit]"

row,Compound,Potency
1,Cc1cc(/C=C2\SC(N)=NC2=O)c(C)n1-c1ccccc1,"inconclusive: 1.78 µM [activator, partial curve, poor fit]"
2,Cc1cc(F)ccc1NC(=O)c1csc2c1CCC(C)C2 (centres undefined),"inconclusive: 10 µM [activator, partial curve, poor fit]"
3,CNCCCOc1ccc(C)cc1Br,inactive
4,Nc1nc(N)nc(-c2ccc(Cl)cc2)n1,"inconclusive: 12.6 µM [activator, partial curve, poor fit]"
5,O=C(CSc1nc2ccccc2o1)Nc1ccc(N2CCOCC2)cc1,"inconclusive: 7.94 µM [activator, partial curve, poor fit]"
6,Cc1ccccc1Nc1ncnc2c1cnn2-c1ccccc1,"inconclusive: 17.8 µM [activator, partial curve, poor fit]"
7,Cc1ccc(-n2[nH]c(C)c(/C=N/n3c(C)nc4ccccc4c3=O)c2=O)cc1,inactive
8,O=C(NCC(=O)N1CCC2(CC1)NCCc1[nH]cnc12)c1ccc(F)cc1,inactive
9,Cc1nc(C)c(-c2ccc(SCc3ccccc3C)nn2)s1,"inconclusive: 12.6 µM [activator, partial curve, poor fit]"
10,N/C(Cc1cccs1)=N\OC(=O)COc1ccc(Cl)cc1Cl,active: 11.2 µM
11,C/C(=N\NC(=O)c1nn(C)c(C)c1Br)c1ccc(NC(=O)c2ccc(C)s2)cc1,"inconclusive: 20 µM [activator, partial curve, poor fit]"
12,CN(C)c1ccc(/C=C/c2c[n+](C)cc3ccccc23)cc1,inactive
13,CN(C)CCCn1c(SCC(=O)Nc2nc(-c3cccc(Br)c3)cs2)nc2ccccc2c1=O,inactive
14,Clc1ccc(Cc2nnc(-c3ccccc3Br)o2)cc1,active: 14.1 µM
15,CC(C)OC(=O)CSc1nnc(-c2ccc(Cl)cc2Cl)o1,"inconclusive: 35.5 µM [activator, single point]"
16,Cc1nc2c(C(=O)N3CCCCC3)cnn2c(C)c1Cc1ccccc1F,"inconclusive: 1.58 µM [activator, partial curve, poor fit]"
17,C/C(=N\NC(=O)c1ccccc1)c1ccc(N2CCCCC2)cc1,active: 11.2 µM
18,Cc1nc2cc(NC(=O)NCCC3=CCCCC3)ccc2o1,"inconclusive: 3.98 µM [activator, partial curve, poor fit]"
19,O=C(NCCc1ccccc1)c1ccc([N+](=O)[O-])cc1,inactive
20,Cc1cccc(-n2c(C)cc(/C=N/n3cnnc3)c2C)c1,inactive
21,O=C(NC(=O)c1ccc(F)cc1F)Nc1ccc(Cl)cc1,active: 2.82 µM
22,O=C(CCc1ccc(CCC(=O)c2cccs2)s1)c1cccs1,"inconclusive: 14.1 µM [activator, single point]"
23,CCOC(=O)c1ccc(OS(=O)(=O)c2ccccc2)c(OC)c1,active: 5.62 µM
24,Cc1nc(-c2ccc3c(c2)OCCCO3)cs1,active: 2.51 µM
25,COc1cccc(/C=C2\CCC(C3CCCC3)C2=O)c1OC (centres undefined),"inconclusive: 12.6 µM [activator, partial curve, poor fit]"
